In the RNAGym collection of RNA variant scans (doi:10.1073/pnas.2313332121):
Variants at the floor of the assay are shown more often than the library holds them.

B1: TPR 5TU (parent)
chain: GGAUCUUCUCGAUCUAACAAAAAAGACAAAUCUGCCACAAAGCUUGAGAGCAUCUUCGGAUGCAGAGGCGGCAGCCUUCGGUGGCGCGAUAGCGCCAACGUUCUCAACUAUGACACGCAAAACGCGUGCUCCGUUGAAUGGAGUUUAUCAUG

Variants of: B1
Test: polymerase ribozyme fitness, log enrichment relative to wild type (log ratio); higher = more active; in vitro selection for triplet polymerase activity
How it was run: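 Mutant libraries for each subunit of a heterodimeric triplet polymerase ribozyme were made by PCR and then transcribed. Each library underwent one round of in vitro selection in triplicate: annealing with a biotinylated primer, the partner subunit and triplets, frozen incubation at −7 °C, gel excision of extended constructs, streptavidin-bead capture and RT-PCR. Input and output libraries were Illumina-sequenced, and only genotypes with ≥10 input reads and ≥1 read per output were kept. Fitness is the logarithm, base 2, of genotype enrichment over wild-type enrichment, computed from inverse-variance-weighted replicate averages.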

Polymerase ribozyme fitness (log ratio), -3.95:
GGAUCUUCUCGAUCUAACAAAAAAGGCAAAUCUGCCACAAAGCUUGAGAGCAUCUUCGGAUGCAGAGGCGGCAGCCUCCGGUGGCGCGAUAGCGCCAACGUUCUCAACUAUGACACGCAAAACGCGUGCUCCGUUGAAUGGAGUUUAUCAUG [A26G U78C]

Polymerase ribozyme fitness (log ratio), ≤ -4.2:
GGAUCUUCUCGAUCUAACAAAAAAGUCAUAUUUGCCACAAAGCUUGAGAGCAUCUACGGAUGGAGAGGCGGCAGCCUUCGGUGGCGCGAUAGCGCCAACGUUCUGAACUAUGACACGCAAAACGCGUGCUCCGUCGAAUGGAGUUUAUCAUG [A26U A29U C32U U56A C63G C105G U135C]
GGAUCUUCUCGAUCUAACAAAAAAGUCAAUUCUGCCACAAAGCUUGAGAGCAUCUUCGGAUGCAGAGGCGGCAGCCUUCGGUGGCGCGAUAGAGCCAACGUUCUCAACUAUGACUCGCAAAACGCCUGCUCCGUUGAAUGGAGUUUAUCAUG [A26U A30U C93A A115U G126C]
GGAUCUUCUCGAUCUAACAAAAAAGUCAAAUCUGCCACCAAGCUUGAGAGCAACUUCGGAUGCAGAGGCGGCAGCCUUCGGUGGAGAGAUAGCGCCAACGUUCUCAAAUAUGACACGCAAAACGCGUGCUCCGUUGAAUGGAGUUUAUCAAG [A26U A39C U53A C85A C87A C108A U151A]
GGAUCUUCUCGAUCUAACAAAAAAGGCAAAUCUGCCACAAAGCUUGAGAGCAUCUUCGGAAGCAGAGGCGGCAGCCUUCGGUGGGGCGAUAGCGCCAACGUUCUCAACUAUGACACGCAAAACGCGUGCUCCGUCGAAUGGAGUUUAUCAUG [A26G U61A C85G U135C]
GGAUCUUCUCGAUCUAACAAAAAAGUCAAAUCUGCCACGAAGCUUGAGAGCAUCUUCGGGUGCAGAGGCGGCAGCCUUCAGUGGUGCGAUAGCGCCAACGUACUCAACUAUGACACGCAAAACGCGUGCUCCGUUGAAUGGAGUUUAUCAUG [A26U A39G A60G G80A C85U U102A]
GGAUCUUCUCGAUCUAACAAAAAAGUCAAAUCUGCCACAAAGCUUGAGAGCAUCUUCGGAUGCAGAGGCGGCAGCCUUCGGUGGCGCGAUAGCGCCAACGUUCUCAUCUAUGACACGCAAAACGCGUGCUCCGUUGAAUGGAGUUUAUCAUG [A26U A107U]
GGAUCUUCUCGAUCUAACAAAAAAGUCAAAUCUGCCACAAAGCUUGAGAGCAUCUUCGGAUGCAGAGGCGGCAGCCUUCGGUGGCGCGAUAGCGCCAGCGUUCUCAACUAUGACACGCAAAACGCGGGCUCCGUUGAAUGGAGUUUAUCAUG [A26U A98G U127G]
GGAUCUUCUCGAUCUAACAAAAAAGUCAAAUCUGCCACAAAGCUUGAGGGCAUCAUCGGGUGCAGAGGCGGCAGCCUUCGGUGGCGCGAUAGCGCUAACGUUCUCAACUAUGACACGCAAAACGCGUGCUCCGUUAAAUGGAGUUUAUCAUG [A26U A49G U55A A60G C96U G136A]
GGAUCUUCUCGAUCUAACAAAAAAGUCAAAUCUGGCACAAAGCUUGAGAGCAUCUUCGGAUGCAGAAGCGGCAGCCUUCGGUGGUGCGAUAGCGCCAACGUUCUCAACUAUGACACGCAAAACGCGUGCUCCGUUGAAUGCAGUUUAUCAUG [A26U C35G G67A C85U G141C]
GGAUCUUCUCGAUCUAACAAAAAAGGCAAAUCUGCCACAAAGCUAGAUAGCAUCUUCGGAUGCAGAGGCGGCAGCCUUCGGUGGCGCGAUAGCGUCAACGUUCUCAAGUAUGACACGCAAAACGCUUGCUCCGUUGAAUGGAGUUUAUCAUG [A26G U45A G48U C95U C108G G126U]
GGAUCUUCUCGAUCUAACAAAAAAGUCAAAUCUGGCACAAAGCUUGAGAGCAUCUUCGGAUGCAGAGGCGGCAGCAUUCGGUGGCCCGAUAGCGCCAACGUUCUCAACUAUGACACGCAAAACGCGUGCUCCGUUGAAUGGAGUUUAUCAUG [A26U C35G C76A G86C]
GGAUCUUCUCGAUCUAACAAAAAAGUCAAAUCUGCCACAAAGCUUGAGGGCAUCUUCGGAUGCAGAGGCGGCAGCCUUCGGUGGCGCGCUAGCGCCAACGUUCUCAACUAUGACACGCAAAACGCGUGCUCCGCUGAAGAGAGUUUAUCAUG [A26U A49G A89C U134C U139G G140A]
GGAUCUUCUCGAUCUAACAAAAAAGUCAAAUGUGCCACAAAGCUAGAGAGCAUCUUAGGAUGCAGAGGCGGCAGCCUUCGGUUGCGCGAUAGCGCCAACGUUCUCAACUAUGACACGCAAUACGCGUGCUCCGUUGAAUGGAGUUUAUCAUG [A26U C32G U45A C57A G83U A121U]
GGAUCUUCUCGAUCUAACAAAAAAGUCAAAUCUGCCACAAAGCUUGAGUGCAUCUUCGUAUGCAGAGGCGGCAGCCUUCGGUGGCGCGAUAGCGCCAACGUUCUCAACUAUGACACGCAAAACGCGUGCUCCGUUGAAUGGAGUUUAUCAUG [A26U A49U G59U]
GGAUCUUCUCGAUCUAACAAAAAAGUCAAAUCUGCCCCAAAGCUUGAGAGCAUCUUCGGAUGCAGAGGCGGCAGCCUUCGGUGGCGCGAUAGGGCCAACGUUCUGAACUAUGACACGCAAAACGCGUUCUCCGUUGAAUGGAGUUUAUCAUG [A26U A37C C93G C105G G128U]
GGAUCUUCUCGAUCUAACAAAAAAGUCAAAUCUGCCACAAAGCUUGAGAGCGUCUUAGGAUGCAGAGGCGGCAGCCUUCGGUGGCGCGAUAGCGCCAACGUUCUAAUCUAUGAUACGCAAAACGCGUGCUCCGUUGAAUGAAGUUUAUAAUG [A26U A52G C57A C105A A107U C114U G141A C149A]
GGAUCUUCUCGAUCUAACAAAAAAGGCAAAUCUGCCACAAAGCUUGAGAGCAUCAUCGGAUGCAGAGGCGGCAGCCUUCGGUGGCGCGAUAGCGCUUACGUUCUUAACUAUGACACGCCAAACGCGUGCUCCGUUGAAUGGAGUUUAUCAUG [A26G U55A C96U A97U C105U A119C]
GGAUCUUCUCGAUCUAACAAAAAAGGCAAAACUGCCACAGAUCUUGAGAGCAUCUUCGGUUGCAGAGGCGGCAGCCUUCCGUGGCGCGAUAGCGCCAACGUUCUCAACUAUGAUACGCAAAACGCGUGCUCCGAUGAAUGGAGCUUAUCAUG [A26G U31A A40G G42U A60U G80C C114U U134A U144C]
